Reference: the supplement of paper PMC8183993
Where a name gives a salt, the structure may show the parent alone. ± gives the standard deviation of the averaged measurements. Over roughly 3,200 compounds, “nuclei count (viability) relative to DMSO” has its median near 99; the lowest 2% begin near 16. This is one part of the list.

What follows are compounds tested on U2OS (assay: nuclei count (viability) relative to DMSO (% of DMSO); higher = more viable cells). Details: 10 µM; 24 h.
Procedure: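 Primary image-based screen in U2OS cells: compounds at 10 uM for 24 h, then a 1 h o-propargyl-puromycin (OPP) pulse, click labelling, and high-throughput microscopy. Mean cytoplasmic OPP intensity and nuclei count were normalised to DMSO wells within each plate (DMSO = 100) and averaged over triplicate plates.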

| SMILES | nuclei count |
| --- | --- |
| CC1=C(CC(=O)O)c2cc(F)ccc2/C1=C\c1ccc([S+](C)[O-])cc1 (centres undefined) [Sulindac] | 92.1 ± 4.9 |
| C=CC(=O)N1CCC[C@@H](n2nc(-c3ccc(Oc4ccccc4)cc3)c3c(N)ncnc32)C1 | 92.82 ± 0.64 |
| CCc1cccc2c3c([nH]c12)C(CC)(CC(=O)O)OCC3 (centres undefined) [Etodolac (Lodine)] | 102 |
| CCc1cccc2c3c([nH]c12)C(CC)(CC(=O)O)OCC3 (centres undefined) [Etodolac] | 110 |
| Cc1noc(NS(=O)(=O)c2ccc(N)cc2)c1C [Sulfisoxazole] | 101 ± 3.1 |
| CCC[C@H](NC(=O)[C@@H]1[C@H]2CCC[C@H]2CN1C(=O)[C@@H](NC(=O)[C@@H](NC(=O)c1cnccn1)C1CCCCC1)C(C)(C)C)C(=O)C(=O)NC1CC1 [Telaprevir (VX-950)] | 98.8 |
| C[C@@H]1CN(CC(=O)Nc2ccc3c(c2)Cc2cccc(-c4cc(=O)cc(N5CCOCC5)o4)c2S3)C[C@H](C)O1 | 96 |
| CC[N+](CC)(CC)CCC(O)(c1ccccc1)C1CCCCC1 (centres undefined) [Tridihexethyl chloride] | 99.6 |
| CN(C)CCCO[C@@H]1[C@H]2OC(C)(C)O[C@H]2O[C@@H]1[C@H](O)CO [Amiprilose hydrochloride] | 105 |
| C[C@]12CC[C@@H]3c4ccc(O)cc4CC[C@H]3[C@@H]1C[C@@H](O)[C@@H]2O [Estriol] | 106 ± 6.4 |
| Cc1nc(N)sc1-c1ccnc(Nc2ccc(N3CCOCC3)cc2)n1 | 50.1 |
| COc1ccc(CNC(=O)Nc2ncc([N+](=O)[O-])s2)cc1 | 96.8 ± 6.5 |
| OCCOCCN1CCN(C(c2ccccc2)c2ccc(Cl)cc2)CC1 (centres undefined) [Hydroxyzine dihydrochloride] | 89.8 |
| C=CC1=C(C(=O)O)N2C(=O)[C@@H](NC(=O)/C(=N\OCC(=O)O)c3csc(N)n3)[C@H]2SC1 [Cefixime] | 97.3 |
| COc1c(OCCCN2CCOCC2)ccc2c1N=C(NC(=O)c1cnc(N)nc1)N1CCN=C21 | 93.2 |
| [I-].[K+] [Potassium iodide] | 106 |
| O=C1N(c2ccccc2)c2ccccc2C1(Cc1ccncc1)Cc1ccncc1 [Linopirdine dihydrochloride] | 103 |
| CC(C)CCC[C@@H](C)[C@H]1CC[C@H]2[C@@H]3C(=O)C=C4C[C@@H](O)CC[C@]4(C)[C@H]3CC[C@]12C [7-Ketocholesterol] | 102 |
| Cc1cc(-n2c(=O)[nH]c(=O)n(C)c2=O)ccc1Oc1ccc(SC(F)(F)F)cc1 [Toltrazuril] | 112 |
| Cc1ccccc1N1C(=O)c2cc(S(N)(=O)=O)c(Cl)cc2NC1C (centres undefined) [Metolazone] | 107 |
| COc1nc(-c2ccc3c(c2)OCO3)n(-c2ccc(NC(=O)CSc3ccccc3)cc2)n1 [SecinH3] | 100 |
| O=C(Nc1ccc(-c2ccnc(Nc3ccc(N4CCOCC4)cc3)n2)cc1)C1CCCN1 (centres undefined) | 94.3 |
| CCS(=O)(=O)Nc1ccc2c(c1)/C(=C(/Nc1ccc(CN3CCCCC3)cc1)c1ccccc1)C(=O)N2 [Hesperadin] | 35.2 |
| COc1ccc2[nH]c([S+]([O-])Cc3ncc(C)c(OC)c3C)nc2c1 (centres undefined) [Omeprazole] | 103.9 ± 0.25 |
| Nc1cccc2c1CN(C1CCC(=O)NC1=O)C2=O (centres undefined) [Lenalidomide (Revlimid)] | 110 |

| SMILES | nuclei count |
| --- | --- |
| CC(=O)Nc1ccc(O)cc1 [Acetaminophen] | 105 ± 1.2 |
| Brc1c(NC2=NCCN2)ccc2nccnc12 | 89.5 |
| Brc1c(NC2=NCCN2)ccc2nccnc12 [UK 14,304 tartrate] | 108 |
| CN(C)CCOC(=O)COc1ccc(Cl)cc1 [Meclofenoxate hydrochloride] | 102 |
| CC(C)(C)c1cc(O)ccc1O [tert-Butylhydroquinone] | 107 |
| N[C@H](C(=O)O)[C@H](OCc1ccccc1)C(=O)O (racemic) | 89.6 |
| N=C(N)N/N=C/c1c(Cl)cccc1Cl [Guanabenz acetate] | 96 ± 2.9 |
| OC(CCN1CCCCC1)(c1ccccc1)C1CCCCC1 (centres undefined) [Trihexyphenidyl-D,L Hydrochloride] | 99.4 |
| CCCc1nc(C(C)(C)O)c(C(=O)O)n1Cc1ccc(-c2ccccc2-c2nnn[nH]2)cc1 [Olmesartan] | 101 |
| OC[C@H]1NC[C@@H](O)[C@@H](O)[C@@H]1O [1-Deoxymannojirimycin hydrochloride] | 101 |
| c1ccc2nc(C3=NCCN3)cnc2c1 [BU 239 hydrochloride] | 107 |
| CCC(=O)OCC(=O)[C@@]1(OC(=O)CC)[C@H](C)C[C@H]2[C@H]3[C@H]([C@@H](O)C[C@@]21C)[C@@]1(C)C=CC(=O)C=C1C[C@H]3Cl [Alclometasone dipropionate] | 90.9 |
| CN(CCOc1ccc(CC2SC(=O)NC2=O)cc1)c1ccccn1 (centres undefined) [Rosiglitazone Hydrochloride] | 103 |
| CN(CCOc1ccc(CC2SC(=O)NC2=O)cc1)c1ccccn1 (centres undefined) [Rosiglitazone maleate] | 106 |
| O=C(NCC(=O)N1CCCC1)Nc1ccc2cnccc2c1 | 36.9 |
| CC(N)C12CC3CC(CC(C3)C1)C2 (centres undefined) [Rimantadine Hydrochloride] | 109 |
| Fc1cc(-c2cccc3ncc(-c4cnn(C5CCNCC5)c4)nc23)cc(F)c1CN1CCOCC1 | 46 |
| CCC(=O)NC[C@H](Cc1ccc(OCCc2nc(-c3ccccc3)oc2C)cc1)N/C(C)=C\C(=O)c1ccc(C(F)(F)F)cc1 | 104 |
| COc1ccc(C[C@@H]2c3cc(OC)c(OC)cc3CC[N@+]2(C)CCC(=O)OCCCCCOC(=O)CC[N@@+]2(C)CCc3cc(OC)c(OC)cc3[C@H]2Cc2ccc(OC)c(OC)c2)cc1OC [Cisatracurium besylate (Nimbex)] | 95.6 |
| CCOC(=O)c1c(C)n(C)c2ccc(O)cc12 [Mecarbinate] | 105 |
| Nc1cc(-c2ccncc2)c[nH]c1=O [Amrinone] | 97.5 |
| Cc1ccc2c(c1)C(=O)C1(O)CCN(c3ccccc3)C1=N2 (racemic) [(±)-Blebbistatin] | 89.1 |
| CN(C)[C@@H]1C(O)=C(C(N)=O)C(=O)[C@@]2(O)C(O)=C3C(=O)c4c(O)ccc(Cl)c4[C@@H](O)[C@H]3C[C@@H]12 [Demeclocycline hydrochloride] | 106 |
| Cn1c([N+](=O)[O-])cnc1COC(N)=O [Ronidazole] | 109 |
| O=C1c2ccccc2S(=O)(=O)N1CCCCN1CCN(c2ncccn2)CC1 [Ipsapirone] | 108 ± 6.1 |

| SMILES | nuclei count |
| --- | --- |
| COc1ccc(C(=O)NCc2ccc(OCCN(C)C)cc2)cc1OC [Itopride] | 94.2 |
| N[C@@H](C(=O)N[C@@H]1C(=O)N2C(C(=O)O)=C(Cl)CS[C@H]12)c1ccccc1 [Cefaclor hydrate] | 101 |
| O=C(O)c1cc(O)c2ccc(Cl)cc2n1 [7-Chlorokynurenic acid] | 97.9 |
| Cc1cc(Nc2nc(N[C@@H](C)c3ncc(F)cn3)ncc2Cl)[nH]n1 | 49.6 |
| COC[C@H](NC(=O)c1cnc(C)s1)C(=O)N[C@@H](COC)C(=O)N[C@@H](Cc1ccccc1)C(=O)[C@@]1(C)CO1 [Oprozomib (ONX 0912)] | 11.1 |
| O=C(O)CCC/C=C\C[C@@H]1CO[C@H](C(F)(F)F)O[C@@H]1c1ccccc1O | 102 |
| CC(Oc1ccccc1)C(=O)N[C@@H]1C(=O)N2[C@@H]1SC(C)(C)[C@@H]2C(=O)O (some centres undefined) [Phenethicillin potassium salt] | 100 |
| CC[C@@H]1/C=C(\C)C[C@H](C)C[C@H](OC)[C@H]2O[C@@](O)(C(=O)C(=O)N3CCCC[C@H]3C(=O)O[C@H](/C(C)=C/[C@@H]3CC[C@H](Cl)[C@H](OC)C3)[C@H](C)[C@@H](O)CC1=O)[C@H](C)C[C@@H]2OC [Pimecrolimus] | 106 |
| CNCCC(Oc1ccc(C(F)(F)F)cc1)c1ccccc1 (centres undefined) [Fluoxetine hydrochloride] | 99.2 ± 1 |
| Cc1nc2n(c(=O)c1CCN1CCC(c3noc4cc(F)ccc34)CC1)CCCC2 [Risperidone] | 77.4 |
| C[C@@H](CN1CC(=O)NC(=O)C1)N1CC(=O)NC(=O)C1 [Dexrazoxane hydrochloride] | 92.8 |
| C[C@@H](CN1CC(=O)NC(=O)C1)N1CC(=O)NC(=O)C1 [Dexrazoxane HCl] | 90.7 |
| OCc1cc(C(O)CNCCCCCCOCCCCc2ccccc2)ccc1O (centres undefined) [Salmeterol] | 97.6 ± 3.6 |
| C#CCN1C(C)=C(C(=O)OC)C(c2cccc([N+](=O)[O-])c2)C(C(=O)OCC)=C1C (centres undefined) | 99.3 |
| CC(=O)OCC(=O)[C@@]12N=C(C)O[C@@H]1C[C@H]1[C@@H]3CCC4=CC(=O)C=C[C@]4(C)[C@H]3[C@@H](O)C[C@@]12C [Deflazacort (Calcort)] | 100 |
| CC(=O)OCC(=O)[C@@]12N=C(C)O[C@@H]1C[C@H]1[C@@H]3CCC4=CC(=O)C=C[C@]4(C)[C@H]3[C@@H](O)C[C@@]12C [Deflazacort] | 106 |
| O=C(O)Cc1sc(-c2ccccc2)nc1-c1ccc(Cl)cc1 [Fentiazac] | 97.7 |
| CCN1CC(CCN2CCOCC2)C(c2ccccc2)(c2ccccc2)C1=O (centres undefined) [Doxapram HCl] | 102 |
| O=C(c1cc(O)c(O)c(O)c1)c1ccc(O)c(O)c1O [Exifone] | 94.1 |
| Cc1c(C(=O)NN2CCOCC2)nn(-c2ccc(Cl)cc2Cl)c1-c1ccc(I)cc1 | 98.3 |
| Cc1cnc(CNC(=O)c2c(=O)c3ccc(N4CCCN(C)CC4)nc3n3c2sc2ccccc23)cn1 | 60.8 |
| CN(C)Cc1cccc(N/C(=C2\C(=O)Nc3cc(C(N)=O)ccc32)c2ccccc2)c1 | 102 |
| CC(=O)N[C@H]1[C@H]([C@H](O)[C@H](O)CO)OC(C(=O)O)=C[C@@H]1NC(=N)N [Zanamivir (Relenza)] | 101 |
| CC(C)Oc1ccc2c(=O)c3cc(C(=O)O)ccc3oc2c1 | 103 |
